Test results published in PubChem BioAssay AID624296 (National Center for Advancing Translational Sciences (NCATS), 2012).
In all, about 350,000 compounds went through this assay and about 9,900 (2.8%) were called active. This list was built around the results that the source calls inconclusive (neither active nor inactive); the mix of calls is not that of the screen. Calls follow the shape of the dose curve; as a rule, active = well fitted activation curve with a large enough effect; inconclusive = small, poorly fitted or top-dose-only effect; inactive = no such curve, though single readings can be large or run the other way. Potencies of inconclusive entries are left out as doubtful fits.

assay: A quantitative high throughput screen for small molecules that induce DNA re-replication in MCF 10a normal breast cells.; also: nearly all actives have a fitted effect of over 50% in size; as to activity, positive = re-replication: % of control where 0% means no effect; conditions: MCF 10A DNA re-replication, Hoechst nuclear intensity, 48 h; activity, positive = re-replication: at 46.1 µM (top of the series)
Potency is read from the fitted curve at half-maximal effect; tags tell the direction and shape of the fitted curve.

| Compound | Potency | activity, positive = re-replication |
| --- | --- | --- |
| CCN1CCN(C(=O)c2cc3cc4ccc(OC)cc4nc3s2)CC1 | inconclusive [activator, partial curve, poor fit] |  |
| COc1cccc(/C=N/NC(=O)NC2CCCCC2)c1O | inactive |  |
| CCOC(=O)C1=C(CSc2nc3c(cc2C#N)CCC3)OC(N)=C(C#N)C1c1ccccc1 (centres undefined) | inconclusive [activator, single point] |  |
| COc1ccc(-c2ncncc2-c2csc(C)n2)c(O)c1OC | inactive |  |
| COc1ccc(OC)c(-n2c(SCC(=O)Nc3cccc(S(N)(=O)=O)c3)nc3ccccc3c2=O)c1 | inactive |  |
| COc1ccc(-c2cc(C(=O)Nc3cccc(Cl)c3)no2)cc1 | inconclusive [activator, single point] |  |
| COCCNC(=S)N/N=C(\C)c1ccc(C)c([N+](=O)[O-])c1 | inactive |  |
| CCC(=O)N1CCc2cc(Br)cc(S(=O)(=O)NCC3CCCO3)c21 (centres undefined) | inconclusive [activator, partial curve, poor fit] |  |
| C=C(C)Cn1c(-c2ccncc2)n[nH]c1=S | inconclusive [activator, partial curve, poor fit] |  |
| O=C(C[C@@H]1C/C=C/CC[C@@H](Cc2ccc(F)cc2)C(=O)OC[C@H](Cc2ccccc2)NC1=O)N[C@H](CO)Cc1ccccc1 | inactive |  |
| CCOC(=O)c1ccc2c(c1)NC(=O)C(N1CCN(c3ccc(OC)cc3)CC1)S2 (centres undefined) | inconclusive [activator, full curve, poor fit] |  |
| CC1(CCCN2C(=O)c3ccccc3C2=O)OCCO1 | inactive |  |
| CCNc1nc(NC(C)C)nc(N2CC(=O)N(CC(=O)OCC)C2=N)n1 | inconclusive [activator, single point] |  |
| COCCN1Cc2c(sc(C)c2C)N(C(=O)c2ccccc2)C1 | inconclusive [activator, single point] |  |
| CC(C)/C=C(/C(=O)c1ccc(Cl)cc1Cl)n1cncn1 | inconclusive [activator, single point] |  |
| O=C(Cc1ccccc1)NCc1ccncc1 | inactive |  |
| CCN1CCCC1CNC(=O)C(=O)Nc1ccccc1OC (centres undefined) | inconclusive [activator, single point] |  |
| CC[C@]12c3[nH]c4cc(CCC(=O)N(C)C)ccc4c3CCN1C(=O)[C@@H](CC(=O)NCC13CC4CC(CC(C4)C1)C3)C[C@@H]2C(=O)N1CCN(C(=O)c2ccco2)CC1 | inactive |  |
| CCCn1c(=NC(=O)CCS(=O)(=O)c2ccccc2)sc2cc(S(N)(=O)=O)ccc21 | inconclusive [activator, partial curve, poor fit] |  |
| COc1ccccc1N1CCN(C(=O)c2cn(-c3ccccc3)nc2-c2cccnc2)CC1 | inconclusive [activator, single point] |  |
| OCCC1CN(Cc2ccc(-c3ccco3)cc2)CCN1Cc1ccsc1 (centres undefined) | inconclusive [activator, partial curve, poor fit] |  |
| N#CCSc1nc(N)c(C#N)c(C2CCCCC2)c1C#N | inconclusive [activator, partial curve, poor fit] |  |

| Compound | Potency | activity, positive = re-replication |
| --- | --- | --- |
| O=C(Cc1cccs1)N/N=C/C=C/c1ccco1 | inconclusive [activator, single point] |  |
| NC(=O)c1ccsc1NC(=O)COC(=O)CNC(=O)c1ccc(Cl)cc1 | inconclusive [activator, single point] |  |
| CN1C(=O)N(C)C2CC1N(C)C(=O)N2C | inactive |  |
| COc1ccc(-c2cc(C(F)F)nc(-n3nc(C)cc3C)n2)cc1 | inactive |  |
| CS(=O)(=O)c1ccc2nc(NC(=O)c3ccc(NS(=O)(=O)c4ccc(F)c(F)c4)cc3)sc2c1 | inconclusive [activator, single point] |  |
| C[C@H](CO)N1C[C@H](C)[C@@H](CN(C)S(=O)(=O)c2ccccc2)Oc2ccc(NC(=O)Nc3ccc4c(c3)OCO4)cc2C1=O | inconclusive [activator, single point] |  |
| Cc1nn(C)c(N)c1C(O)(c1nccn1C)C(F)(F)F (centres undefined) | inactive |  |
| CCN1C(=O)C(=O)c2cc(C)ccc21 | inconclusive [activator, single point] |  |
| CSc1ccccc1NC(=O)CCn1c(=O)oc2ccccc21 |  | inconclusive: -25.9% [activator] |
| COc1ccc(C(=O)Nc2nc3ccccc3s2)cc1 | inactive |  |
| CCN(C[C@H]1N[C@@](C)(C(=O)OC)[C@H]2C(=O)N(C)C(=O)[C@@H]12)S(=O)(=O)c1ccc(OC)cc1 | inactive |  |
| O=C1C(=O)N(CCCn2ccnc2)C(c2ccc([N+](=O)[O-])cc2)/C1=C(\O)c1ccc2c(c1)OCCO2 (centres undefined) | inactive |  |
| OCC[C@@H]1C[C@H](O)[C@@H](O)[C@@]2(Cc3ccccc3O2)O1 | inactive |  |
| Cc1ccc(/C=C/C(=O)Nc2nnc(SCc3ccc(C#N)cc3)s2)o1 | inconclusive [activator, single point] |  |
| O=C1C(=O)N(CCS(=O)(=O)c2ccccc2)c2ccc(Cl)cc21 | inconclusive [activator, single point] |  |
| CCOc1ccc(NC(=O)CN(C)C(=O)c2cc(S(=O)(=O)N3CCCCCC3)ccc2OC)cc1OCC | inactive |  |
| CCCn1nc(NC(=O)c2ccco2)c2cc3ccc(C)cc3nc21 | inconclusive [activator, single point] |  |
| CCC(C)N(CCNC(=O)c1ccc2c(c1)NC(=O)c1ccccc1S2)C1CCCCC1 (centres undefined) | inconclusive [activator, partial curve, poor fit] |  |
| C=C(C)COc1ccc(-c2n[nH]c(C)c2-c2ccc(Br)cc2)c(O)c1 | inactive |  |
| Cc1ccc(NS(=O)(=O)c2ccc(C)c(NC(=O)COc3ccc4ccccc4c3)c2)c(C)c1 | inactive |  |
| N#Cc1c(N)oc(-c2ccco2)c1-c1ccco1 | inconclusive [activator, partial curve] |  |
| COCc1cc(C)nc(SCC(=O)Nc2nc(C)cs2)c1C#N | active: 16.4 µM |  |
